# Measured values taken from the supplement of paper PMC8728848.
# The list shows a part of the results.
# B1: rCnSL-proA (Clitocybe nebularis) (protein)
# chain: AAFFSLVVLLALLPFGIHASALPSTELTPRVNPNLPGPNDVFVGFRGTNNIVGAIYEKDGIKDTPLNNGADAEMGPGSYITDGLFTARIFASGSAGNNPGTTATVCKIYASGVQWRGAPKGYIPVAYFGNGPTAEQRRQTYLRTLGLPGTAIRFGNLNTNPGQGPTAPRQMVVPPGPLRSLLKASCFPAADTRLPQTLHYFEKRVDWNIITAADSQTWGH
# Legend:
# Assay in all cases: glycan array binding signal (z-score within array); higher = stronger binding
# Settings in all cases: glycan notation: IUPAC condensed, linker removed
# [1] = molecular target: Gal(b1-4)GlcNAc(b1-3)Gal(b1-4)GlcNAc(b1-2)[Gal(b1-4)GlcNAc(b1-3)Gal(b1-4)GlcNAc(b1-6)]Man(a1-6)[Gal(b1-4)GlcNAc(b1-3)Gal(b1-4)GlcNAc(b1-2)Man(a1-3)]Man(b1-4)GlcNAc(b1-4)GlcNAc
# How it was run: (§1)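 The Consortium for Functional Glycomics database supplied 3228 glycan arrays, of which those lacking an available protein sequence were dropped. The binding signal, a within-array Z-score, was averaged across arrays of the same protein sequence and across linkers. Negative scores can be read as non-binding.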
# [2] = molecular target: Gal(b1-4)GlcNAc(b1-3)Gal(b1-4)GlcNAc(b1-2)[Gal(b1-4)GlcNAc(b1-3)Gal(b1-4)GlcNAc(b1-6)]Man(a1-6)[Gal(b1-4)GlcNAc(b1-3)Gal(b1-4)GlcNAc(b1-2)Man(a1-3)]Man(b1-4)GlcNAc(b1-4)[Fuc(a1-6)]GlcNAc
# How it was run: as §1
# [3] = molecular target: Gal(b1-4)GlcNAc(b1-3)Gal(b1-4)GlcNAc(b1-3)Gal(b1-4)GlcNAc
# How it was run: as §1
# [4] = molecular target: Gal(b1-4)GlcNAc(b1-3)Gal(b1-4)GlcNAc(b1-3)Gal(b1-4)GlcNAc(b1-2)Man(a1-3)[Gal(b1-4)GlcNAc(b1-3)Gal(b1-4)GlcNAc(b1-3)Gal(b1-4)GlcNAc(b1-2)Man(a1-6)]Man(b1-4)GlcNAc(b1-4)GlcNAc
# How it was run: as §1
# [5] = molecular target: Gal(b1-4)GlcNAc(b1-3)Gal(b1-4)GlcNAc(b1-3)Gal(b1-4)GlcNAc(b1-2)Man(a1-3)[Gal(b1-4)GlcNAc(b1-3)Gal(b1-4)GlcNAc(b1-3)Gal(b1-4)GlcNAc(b1-2)Man(a1-6)]Man(b1-4)GlcNAc(b1-4)[Fuc(a1-6)]GlcNAc
# How it was run: as §1
# [6] = molecular target: Gal(b1-4)GlcNAc(b1-3)Gal(b1-4)GlcNAc(b1-3)Gal(b1-4)GlcNAc(b1-2)[Gal(b1-4)GlcNAc(b1-3)Gal(b1-4)GlcNAc(b1-3)Gal(b1-4)GlcNAc(b1-6)]Man(a1-6)[Gal(b1-4)GlcNAc(b1-3)Gal(b1-4)GlcNAc(b1-3)Gal(b1-4)GlcNAc(b1-2)Man(a1-3)]Man(b1-4)GlcNAc(b1-4)[Fuc(a1-6)]GlcNAc
# How it was run: as §1
# [7] = molecular target: Gal(b1-4)GlcNAc(b1-3)Gal(b1-4)GlcNAc(b1-3)Gal(b1-4)GlcNAc(b1-3)Gal(b1-4)GlcNAc(b1-2)Man(a1-3)[Gal(b1-4)GlcNAc(b1-3)Gal(b1-4)GlcNAc(b1-3)Gal(b1-4)GlcNAc(b1-3)Gal(b1-4)GlcNAc(b1-2)Man(a1-6)]Man(b1-4)GlcNAc(b1-4)GlcNAc
# How it was run: as §1
# [8] = molecular target: Gal(b1-4)GlcNAc(b1-3)Gal(b1-4)GlcNAc(b1-3)Gal(b1-4)GlcNAc(b1-3)Gal(b1-4)GlcNAc(b1-2)Man(a1-3)[Gal(b1-4)GlcNAc(b1-3)Gal(b1-4)GlcNAc(b1-3)Gal(b1-4)GlcNAc(b1-3)Gal(b1-4)GlcNAc(b1-2)Man(a1-6)]Man(b1-4)GlcNAc(b1-4)[Fuc(a1-6)]GlcNAc
# How it was run: as §1
# [9] = molecular target: Gal(b1-4)GlcNAc(b1-3)Gal(b1-4)GlcNAc(b1-3)Gal(b1-4)GlcNAc(b1-3)Gal(b1-4)GlcNAc(b1-2)[Gal(b1-4)GlcNAc(b1-3)Gal(b1-4)GlcNAc(b1-3)Gal(b1-4)GlcNAc(b1-3)Gal(b1-4)GlcNAc(b1-6)]Man(a1-6)[Gal(b1-4)GlcNAc(b1-3)Gal(b1-4)GlcNAc(b1-3)Gal(b1-4)GlcNAc(b1-3)Gal(b1-4)GlcNAc(b1-2)Man(a1-3)]Man(b1-4)GlcNAc(b1-4)[Fuc(a1-6)]GlcNAc
# How it was run: as §1
# [10] = molecular target: Gal(b1-4)GlcNAc(b1-3)Gal(b1-4)GlcNAc(b1-3)Gal(b1-4)GlcNAc(b1-3)Gal(b1-4)GlcNAc(b1-3)Gal(b1-4)GlcNAc(b1-2)Man(a1-3)[Gal(b1-4)GlcNAc(b1-3)Gal(b1-4)GlcNAc(b1-3)Gal(b1-4)GlcNAc(b1-3)Gal(b1-4)GlcNAc(b1-3)Gal(b1-4)GlcNAc(b1-2)Man(a1-6)]Man(b1-4)GlcNAc(b1-4)GlcNAc
# How it was run: as §1
# [11] = molecular target: Gal(b1-4)GlcNAc(b1-3)Gal(b1-4)GlcNAc(b1-3)Gal(b1-4)GlcNAc(b1-3)Gal(b1-4)GlcNAc(b1-3)Gal(b1-4)GlcNAc(b1-2)Man(a1-3)[Gal(b1-4)GlcNAc(b1-3)Gal(b1-4)GlcNAc(b1-3)Gal(b1-4)GlcNAc(b1-3)Gal(b1-4)GlcNAc(b1-3)Gal(b1-4)GlcNAc(b1-2)Man(a1-6)]Man(b1-4)GlcNAc(b1-4)[Fuc(a1-6)]GlcNAc
# How it was run: as §1
# [12] = molecular target: Gal(b1-4)GlcNAc(b1-3)Gal(b1-4)GlcNAc(b1-3)Gal(b1-4)GlcNAc(b1-3)Gal(b1-4)GlcNAc(b1-3)Gal(b1-4)GlcNAc(b1-2)[Gal(b1-4)GlcNAc(b1-3)Gal(b1-4)GlcNAc(b1-3)Gal(b1-4)GlcNAc(b1-3)Gal(b1-4)GlcNAc(b1-3)Gal(b1-4)GlcNAc(b1-6)]Man(a1-6)[Gal(b1-4)GlcNAc(b1-3)Gal(b1-4)GlcNAc(b1-3)Gal(b1-4)GlcNAc(b1-3)Gal(b1-4)GlcNAc(b1-3)Gal(b1-4)GlcNAc(b1-2)Man(a1-3)]Man(b1-4)GlcNAc(b1-4)[Fuc(a1-6)]GlcNAc
# How it was run: as §1
# [13] = molecular target: Gal(b1-4)GlcNAc(b1-3)Gal(b1-4)GlcNAc(b1-3)Gal(b1-4)GlcNAc(b1-3)Gal(b1-4)GlcNAc(b1-3)Gal(b1-4)GlcNAc(b1-3)Gal(b1-4)GlcNAc(b1-2)Man(a1-3)[Gal(b1-4)GlcNAc(b1-3)Gal(b1-4)GlcNAc(b1-3)Gal(b1-4)GlcNAc(b1-3)Gal(b1-4)GlcNAc(b1-3)Gal(b1-4)GlcNAc(b1-3)Gal(b1-4)GlcNAc(b1-2)Man(a1-6)]Man(b1-4)GlcNAc(b1-4)GlcNAc
# How it was run: as §1
# [14] = molecular target: Gal(b1-4)GlcNAc(b1-3)Gal(b1-4)GlcNAc(b1-3)GalNAc
# How it was run: as §1
# [15] = molecular target: Gal(b1-4)GlcNAc(b1-3)Gal(b1-4)GlcNAc(b1-3)[Gal(b1-4)GlcNAc(b1-3)Gal(b1-4)GlcNAc(b1-6)]GalNAc
# How it was run: as §1
# [16] = molecular target: Gal(b1-4)GlcNAc(b1-3)Gal(b1-4)GlcNAc(b1-6)[Gal(b1-3)]GalNAc
# How it was run: as §1
# [17] = molecular target: Gal(b1-4)GlcNAc(b1-3)Gal(b1-4)[Fuc(a1-3)]GlcNAc(b1-3)Gal(b1-4)[Fuc(a1-3)]GlcNAc
# How it was run: as §1
# [18] = molecular target: Gal(b1-4)GlcNAc(b1-3)GalNAc
# How it was run: as §1
# [19] = molecular target: Gal(b1-4)GlcNAc(b1-3)[Fuc(a1-3)GlcNAc(b1-6)]Gal(b1-4)Glc
# How it was run: as §1
# [20] = molecular target: Gal(b1-4)GlcNAc(b1-3)[Gal(b1-4)GlcNAc(b1-6)]Gal(b1-4)GlcNAc
# How it was run: as §1
# [21] = molecular target: Gal(b1-4)GlcNAc(b1-3)[GlcNAc(b1-6)]Gal(b1-4)GlcNAc
# How it was run: as §1
# [22] = molecular target: Gal(b1-4)GlcNAc(b1-6)Gal(b1-4)GlcNAc
# How it was run: as §1
binder,measurement,setting,value
B1,glycan array binding signal (z-score),[1],1.27
same,glycan array binding signal (z-score),[2],2.71
same,glycan array binding signal (z-score),[3],0.529
same,glycan array binding signal (z-score),[4],4.45
same,glycan array binding signal (z-score),[5],1.3
same,glycan array binding signal (z-score),[6],4.11
same,glycan array binding signal (z-score),[7],2.14
same,glycan array binding signal (z-score),[8],1.66
same,glycan array binding signal (z-score),[9],4.64
same,glycan array binding signal (z-score),[10],0.77
same,glycan array binding signal (z-score),[11],0.434
same,glycan array binding signal (z-score),[12],3.94
same,glycan array binding signal (z-score),[13],2.33
same,glycan array binding signal (z-score),[14],1.57
same,glycan array binding signal (z-score),[15],2.65
same,glycan array binding signal (z-score),[16],1.95
same,glycan array binding signal (z-score),[17],-0.135
same,glycan array binding signal (z-score),[18],-0.32
same,glycan array binding signal (z-score),[19],0.661
same,glycan array binding signal (z-score),[20],-0.071
same,glycan array binding signal (z-score),[21],0.091
same,glycan array binding signal (z-score),[22],-0.504
